In all, about 360,000 compounds went through this assay and about 740 (0.21%) were called active. The shares of active, inactive and inconclusive entries below differ from those in the screen. Calls come from the whole dose curve; as a rule, active = well fitted inhibition curve with a large enough effect; inconclusive = small, poorly fitted or top-dose-only effect; inactive = no such curve, though single readings can be large or run the other way. Potencies of inconclusive entries are left out as doubtful fits.
What follows are compounds tested on Plasmodium falciparum AMA1 (3D7) - RON2 peptide interaction (assay: qHTS for Inhibitors of AMA1-RON; Towards Development of Antimalarial Drug Lead: Primary Screen). Settings: AlphaScreen AMA1-biotinylated RON2 peptide binding; activity change, negative = inhibition: at 58.2 µM (top of the series) unless noted.
In short: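 AMA1 (3D7) with his tag at 25 nM final met compounds first, then biotinylated RON2 peptide at 25 nM; detection used donor plus acceptor beads, 10 µg/mL apiece, read by AlphaScreen after 30 min at room temperature.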
Note: nearly all actives have a fitted effect of over 45% in size.
Potency is the fitted concentration of half-maximal effect; tags give direction and shape of the fitted curve.
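Throughout, for activity change, negative = inhibition: 0% = vehicle wells and -100% = peptide control.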

SMILES	Potency	activity change, negative = inhibition
COc1cc2c(cc1OC)C(c1cccs1)N(C(=O)c1cccc(S(=O)(=O)N(C)C)c1)CC2 (centres undefined)	inconclusive [inhibitor, partial curve, poor fit]	–
COc1cccc(C(=O)OCC(=O)c2c[nH]c3ccccc23)c1O	inactive	–
O=C(N/N=C\c1cn[nH]c1-c1ccccc1)c1cccs1	inactive	–
C[C@H](NC(=O)c1nc[nH]c1C(=O)NCCCCCNC(=O)OC(C)(C)C)C(=O)OC(C)(C)C	inactive	–
O=C(O)c1ccc(N/N=C/c2cn(Cc3ccc(F)cc3)c3ccccc23)cc1	inactive	–
COc1ccc(NC(=O)COC(=O)c2ccc(F)cc2F)cc1	–	inconclusive: -3.58% [inhibitor]
O=C(c1cc(-c2ccncc2)nc2ccc(Cl)cc12)N1CCN(Cc2ccc3c(c2)OCO3)CC1	inconclusive [inhibitor, partial curve]	–
Cn1c(-c2ccc3c(c2)OCO3)cnc1NCc1ccccc1Cl	inconclusive [inhibitor, single point]	–
CCN(CC)CCCN=C1N[C@@H](c2ccccc2)C(C(=O)OC)=C(C)N1CC	inactive	–
COc1ccccc1-n1cnc2cc(NCc3cccs3)ccc21	inconclusive [inhibitor, partial curve]	–
COc1ccc(OC)c2cc3ccccc3cc12	inconclusive [inhibitor, single point]	–
Cc1cccc(N2CCN(C(=O)c3cc4cc(F)ccc4[nH]3)CC2)c1C	inactive	–
Nc1ccc(N2CCN(c3ccc(F)cc3)CC2)cc1	inconclusive [inhibitor, partial curve, poor fit]	–
CN1CCc2c(sc3c2C(=O)NC(c2cn(Cc4ccccc4)c4ccccc24)N3)C1 (centres undefined)	inconclusive [inhibitor, partial curve]	–
CSc1sc(C(=O)N(C)C)c2c1S(=O)(=O)N(C)c1ccccc1-2	inactive	–
Cc1cccc(C)c1-n1nnnc1C(c1cccs1)N1CCN(C/C=C/c2ccccc2)CC1 (centres undefined)	inconclusive [inhibitor, partial curve, poor fit]	–
CCCOc1ccc(C(=O)Nc2ccc(S(=O)(=O)N3C[C@@H]4C[C@@H](C3)c3cccc(=O)n3C4)cc2)cc1	inconclusive [inhibitor, single point]	–
CC1(C)CC(=O)C(C(C2=C(O)CC(C)(C)CC2=O)c2ccc(Br)s2)C(=O)C1 (centres undefined)	–	inactive: -1.57% [at 11.6 µM]
CCOC(=O)Nc1ccc2c(c1)Nc1ccccc1S2	inconclusive [inhibitor, partial curve]	–
Cc1ccc(COc2ccc3c(c2)OCO3)cc1	inconclusive [inhibitor, partial curve]	–
O=C(Nc1ccc(N2CCOCC2)cc1)c1ccc(Br)o1	inconclusive [inhibitor, single point]	–
Nc1cc(N)c2c(c1)C(=O)c1ccccc1-2	inconclusive [inhibitor, single point]	–

SMILES	Potency	activity change, negative = inhibition
COC(=O)c1ccc(C23CC4(C2)[C@H](CN(C)[C@@H]4c2ccccc2)C3c2ccccc2)cc1 (some centres undefined)	inconclusive [inhibitor, single point]	–
COc1ccccc1N1CCN(CC(=O)Nc2ccccc2C(=O)NCCc2ccccc2)CC1	inactive	–
Cc1nn(C)cc1[C@@H]1C[C@H]2CN(Cc3cccc(Cl)c3)C(=O)[C@]23CCCN13	inactive	–
COc1cc(OC)nc(NC(=O)NS(=O)(=O)c2ccc(OC(F)(F)F)cc2)n1	inactive	–
CCOC(=O)c1c(C)nc(C(Cl)(Cl)Cl)nc1N	inactive	–
COc1ccc(N2CCN(Cc3csc(C)c3-c3ccc(C)cc3)CC2)cc1	active: 10 µM	–
CCOC(=O)C1=C(C)NC(=O)NC1c1ccco1 (centres undefined)	inconclusive [inhibitor, single point]	–
CC(C)(C)C(=O)Nc1nc2cc3c(cc2s1)OCO3	inconclusive [inhibitor, single point]	–
CCN(CC)S(=O)(=O)c1cc(C(=O)Nc2ccccc2[N+](=O)[O-])ccc1Cl	inconclusive [inhibitor, partial curve]	–
CCCCCCSc1ccc([C@H]2N[C@@](CC(C)C)(C(=O)OC)[C@H]3C(=O)N(C)C(=O)[C@@H]23)cc1OC	inactive	–
Cc1ccc2[nH]c(=O)c(C(c3nnnn3CC3CCCO3)N3CCCc4ccccc43)cc2c1 (centres undefined)	inactive	–
CCN(CC)c1ccc(NC(=S)NCC2CCCO2)cc1 (centres undefined)	inconclusive [inhibitor, partial curve]	–
Cc1cc(O)c(-c2cc(C(=O)Nc3sc4c(c3C(=O)NCc3ccco3)CCC4)[nH]n2)cc1C	inactive	–
Cc1ccc(Nc2ccc(C(F)(F)F)cc2[N+](=O)[O-])cc1	inconclusive [inhibitor, partial curve]	–
O=C(CN1CCCc2ccccc21)NCCc1ccc(Cl)cc1	inconclusive [inhibitor, single point]	–
OCC[n+]1c2ccccc2nc2ccc(N3CCOCC3)cc21	inconclusive [inhibitor, partial curve]	–
CC(=O)/C(=N\Nc1ccccc1)Sc1cccc2cccnc12	inconclusive [inhibitor, partial curve]	–
CCN1CCN(C(=O)c2cc3nc(-c4ccccc4)cc(C(F)(F)F)n3n2)CC1	–	inconclusive: 2.16% [inhibitor]
C/C(=N\Nc1ccccc1[N+](=O)[O-])c1ccc(N2CCOCC2)cc1	inconclusive [inhibitor, full curve]	–
COc1ccc(-c2ccc3[nH]c4c(c3c2)CCN2C[C@H]3[C@H](C)ON(C)[C@H]3C[C@@H]42)cc1	inconclusive [inhibitor, partial curve]	–
CCOc1ccc(C(=O)c2cc([N+](=O)[O-])ccc2Cl)cc1	inconclusive [inhibitor, partial curve]	–
COc1ccc(CCC(=O)Nc2cccc(S(=O)(=O)N3CCCCCC3)c2)cc1OC	inactive	–
